Measurements from the BET-seq Pho4 binding data (Le et al. 2018).
The list shows a part of the results. These are noisy estimates, calculated here from bound and input reads.

Target: T1, Pho4 (S. cerevisiae) (UniProt P07270)
T1 sequence: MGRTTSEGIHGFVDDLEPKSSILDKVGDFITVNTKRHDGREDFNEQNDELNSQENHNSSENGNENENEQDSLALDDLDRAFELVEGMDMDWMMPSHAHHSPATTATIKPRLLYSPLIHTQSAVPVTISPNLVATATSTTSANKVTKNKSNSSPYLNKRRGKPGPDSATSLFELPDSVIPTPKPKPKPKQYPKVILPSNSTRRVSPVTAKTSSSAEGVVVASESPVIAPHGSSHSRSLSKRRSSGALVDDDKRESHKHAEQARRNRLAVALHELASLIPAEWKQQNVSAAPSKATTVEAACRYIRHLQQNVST
Assay: relative binding free energy (BET-seq); higher = weaker binding
Conditions: reference: library average

Sequence | relative binding free energy
GATGTCACGTGGGTTG | 0.15 kcal/mol
AGTCTCACGTGCGGGT | 0.06 kcal/mol
GTAAGCACGTGTGAGC | 0.07 kcal/mol
GCGTTCACGTGGCTTT | 0.35 kcal/mol
TGACACACGTGTGGGT | 0 kcal/mol
TGGTACACGTGTCGCG | 0.13 kcal/mol
TGTATCACGTGCTCTT | 0.13 kcal/mol
CCTGACACGTGGTGGG | -0.14 kcal/mol
ACACGCACGTGGGGGG | -0.3 kcal/mol
ATTGGCACGTGGTAAA | -0.09 kcal/mol
GCGGTCACGTGAGGTT | 0.4 kcal/mol
TGCTACACGTGTCGGG | 0.14 kcal/mol
ATGATCACGTGGGCGG | 0.03 kcal/mol
GGCGGCACGTGGACAG | -0.03 kcal/mol
GTTCACACGTGGTAGG | 0.1 kcal/mol
GGTGGCACGTGCGGGA | -0.11 kcal/mol
ATTGGCACGTGAACGG | 0.08 kcal/mol
ATATTCACGTGGCGGG | 0.13 kcal/mol
TAGCGCACGTGGGTTT | -0.23 kcal/mol
TCATGCACGTGAGGAT | 0.15 kcal/mol
GTTTGCACGTGTCTGT | 0.06 kcal/mol

Sequence | relative binding free energy
ATGGACACGTGTTAGC | 0.16 kcal/mol
TGTATCACGTGATGTT | 0.24 kcal/mol
CCTGACACGTGGGGGG | -0.24 kcal/mol
GAAAACACGTGGTGGC | 0.18 kcal/mol
GGCGGCACGTGGAAAG | 0.03 kcal/mol
CAGTGCACGTGTGTGA | -0.08 kcal/mol
ATTGGCACGTGGAGAT | 0.02 kcal/mol
CTGTGCACGTGTCAGG | -0.05 kcal/mol
TGCACCACGTGTTGTG | -0.1 kcal/mol
TGTGCCACGTGGTTAA | -0.14 kcal/mol
GTGCTCACGTGGGTTG | 0.07 kcal/mol
GGATTCACGTGAGAGT | 0.38 kcal/mol
CGGGTCACGTGCATTG | 0.18 kcal/mol
GGAACCACGTGAGGTG | 0.14 kcal/mol
GAGTGCACGTGCGTAG | 0.05 kcal/mol
ACTGGCACGTGTGCGT | -0.2 kcal/mol
TCTGACACGTGATGGG | -0.02 kcal/mol
TAGAGCACGTGTATGG | -0.1 kcal/mol
GTGTGCACGTGCAGGC | -0.05 kcal/mol
GAGTTCACGTGTCGTA | 0.3 kcal/mol
TTAGGCACGTGATATA | -0.05 kcal/mol

Sequence | relative binding free energy
ATGGTCACGTGGCTTT | 0.02 kcal/mol
GCGCTCACGTGGGGTG | 0.17 kcal/mol
AGATACACGTGACGGT | 0.35 kcal/mol
TCTGGCACGTGGATAG | -0.15 kcal/mol
TATTGCACGTGTGAAG | 0.18 kcal/mol
GGAGTCACGTGCATTT | 0.24 kcal/mol
GTAAGCACGTGGTTAA | -0.21 kcal/mol
TGCGACACGTGCAGGG | -0.05 kcal/mol
ATGCGCACGTGTTGAT | -0.14 kcal/mol
TTACACACGTGTGTTA | 0.05 kcal/mol
CAGATCACGTGTAGGG | 0.05 kcal/mol
AGCCGCACGTGGGTGG | -0.27 kcal/mol
TTGAGCACGTGGTTGG | -0.11 kcal/mol
TTGGGCACGTGCGAGT | -0.05 kcal/mol
TTCTACACGTGTTGCG | 0.09 kcal/mol
GGACGCACGTGGGATG | -0.25 kcal/mol
AGGTGCACGTGAAGGT | 0.24 kcal/mol
TAAGACACGTGGGGAT | -0.07 kcal/mol
TTTTGCACGTGGCGGG | -0.07 kcal/mol
GGGAACACGTGGGAGT | -0.1 kcal/mol
TGGTGCACGTGGCTGG | -0.04 kcal/mol
